Source: PubChem BioAssay AID588855 (National Center for Advancing Translational Sciences (NCATS), 2011)
In all, about 410,000 compounds went through this assay and about 5,000 (1.2%) were called active. Inconclusive means that the source gave no clear call. Such entries were picked first, then a sample of the others. Calls follow the shape of the dose curve; as a rule, active = well fitted inhibition curve with a large enough effect; inconclusive = small, poorly fitted or top-dose-only effect; inactive = no such curve, though single readings can be large or run the other way. Potencies beside an inconclusive call are fits to weak or partial responses and may not hold up.

Experiment: qHTS for Inhibitors of TGF-b; also: nearly all actives have a fitted effect of over 65% in size
Conditions: HepG2 CAGA-GFP TGF-b/SMAD3 reporter, GFP fluorescence, 18 h, TGF-beta stimulated, 500 pg/mL final; series mostly up to 46.1 µM; activity, negative = inhibition: at the top concentration
How it was run: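 Inhibition of TGF-beta-driven CAGA-GFP reporter expression in HEPG2 cells is measured by cellular GFP fluorescence after 18 h stimulation with 500 pg/mL recombinant TGF-beta in 1% FBS medium at 37 degrees C.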
% is scaled to controls: 0 for no effect and ±100 for the full control effect; potency is read from the fitted curve at half-maximal effect; tags tell the direction and shape of the fitted curve.

Row | Compound | Potency | activity, negative = inhibition
1 | Cc1cccc(N2CCN(C(=O)c3cn(C)c(=O)c4c3c3ccccc3n4C)CC2)c1C | active: 10 µM | –
2 | COc1ccc(OC)c(CCNC(=O)c2sc3nc4n(c(=O)c3c2C)CCCC4)c1 | inconclusive: 5.62 µM [inhibitor, single point] | –
3 | CSCCC(NC(=O)C1CCCCC1)C(=O)Nc1ccc(F)c(Cl)c1 (stereo unspecified) | inconclusive: 35.5 µM [inhibitor, single point] | –
4 | COCCNC(=O)CCSCc1ccccc1F | inconclusive: 0.794 µM [inhibitor, full curve] | –
5 | CCN(CC)S(=O)(=O)c1ccc(OC)c(NC(=O)c2cc3c(=O)n4ccccc4nc3s2)c1 | inconclusive: 0.501 µM [inhibitor, full curve, poor fit] | –
6 | CC[C@]12c3[nH]c4cc(CCC(=O)N(C)C)ccc4c3CCN1C(=O)[C@@H](CC(=O)NC/C=C(\C)CCC=C(C)C)C[C@@H]2C(=O)N1CCN(C(=O)C2CC2)CC1 | inconclusive: 11.2 µM [inhibitor, partial curve] | –
7 | N/C(=N\S(=O)(=O)c1cc(C(F)(F)F)cc(C(F)(F)F)c1)c1ccncc1 | – | inactive: 4.56%
8 | Cc1ccc(OCC(=O)OCc2cc(=O)n3nc(C4CCCCC4)sc3n2)cc1 | – | inactive: -3.75%
9 | COc1cc(-c2nnc(SCC(=O)N(C)C3CCCCC3)o2)cc(OC)c1OC | inconclusive: 1.78 µM [inhibitor, full curve, poor fit] | –
10 | COc1ccc(CNC(=O)C2CCCN(S(=O)(=O)c3cc(C)ccc3OC)C2)cc1 (stereo unspecified) | inconclusive: 17.8 µM [inhibitor, single point] | –
11 | O=C(c1ccccc1NS(=O)(=O)c1cccc([N+](=O)[O-])c1)N1CCCC1 | inconclusive: 25.1 µM [inhibitor, single point] | –
12 | N#Cc1cc(-c2ccccc2)nc(Oc2ccccc2)n1 | – | inactive: 0.575%
13 | COc1ccc(CCC(=O)NCCc2csc(-c3cccc(F)c3)n2)cc1 | – | inactive: -38.5%
14 | O=c1cc(-c2ccc(O)c(O)c2)oc2c1ccc1ccccc12 | inconclusive: 35.5 µM [inhibitor, single point] | –
15 | Cc1ccc(NS(=O)(=O)c2ccc(NC(=O)C(C)Sc3ccc(Cl)cc3)cc2)c(C)c1 (stereo unspecified) | inconclusive: 25.1 µM [inhibitor, single point] | –
16 | NS(=O)(=O)c1ccc(CCNC(=O)CN2CCN(c3ccc(F)cc3)CC2)cc1 | inconclusive: 6.31 µM [inhibitor, partial curve, poor fit] | –
17 | Cc1ccc(OCCN2CCC2(C)C(=O)NCc2ccc(C(F)(F)F)cc2)cc1 (stereo unspecified) | active: 12.6 µM | –
18 | COc1ccc(NC(C)=O)cc1NS(=O)(=O)c1ccc2c(c1)OCCO2 | inconclusive: 5.62 µM [inhibitor, single point] | –
19 | CCc1ccc(OCC2c3cc(OC)c(OC)cc3CCN2C(=O)Cc2ccc(OC)c(OC)c2)cc1 (stereo unspecified) | active: 11.2 µM | –
20 | Cc1csc2c(N3CCN(C(=O)NC(C)(C)C)CC3)ncnc12 | inconclusive: 35.5 µM [inhibitor, single point] | –
21 | OC[C@@H]1CN(CCc2ccccc2)C[C@H](n2cnc3c(NCc4ccc(F)cc4)ncnc32)O1 | inconclusive: 5.62 µM [inhibitor, single point] | –
22 | COCCCn1c(=S)[nH]c2sc3c(c2c1=O)CCCC3 | – | inactive: 2.36%

Row | Compound | Potency | activity, negative = inhibition
23 | COc1ccc(CNC(=O)[C@H](C)NC(=O)C2CCN(S(=O)(=O)c3ccccc3)CC2)cc1 | – | inactive: 12.8%
24 | O=C(Nc1ccc(Br)cn1)c1ccc(Br)s1 | – | inactive: 20.5%
25 | CCOc1ccc(C(=O)C(CCC(CN(C)C)C(=O)c2ccc(OCC)cc2)CN(C)C)cc1 (stereo unspecified) | active: 5.01 µM | –
26 | CSc1ccccc1NC(=O)COc1ccc(Cl)cc1Cl | inconclusive: 25.1 µM [inhibitor, partial curve, poor fit] | –
27 | NCCSc1c(-c2ccc(F)cc2)[nH]c2ccccc12 | inconclusive: 20 µM [inhibitor, partial curve, poor fit] | –
28 | CC(C)C[C@H]1CNC(=S)N1CC1CCCN1C[C@H](Cc1ccccc1)N1C[C@H](Cc2ccc(O)cc2)N(CC2CCCCCC2)C1=S (stereo partly specified) | active: 6.31 µM | –
29 | COCc1cc(=O)[nH]c(SCCS(=O)(=O)c2ccc(Cl)cc2Cl)n1 | inconclusive: 35.5 µM [inhibitor, single point] | –
30 | CCc1ccc(NC(=S)N(CCCN2CCOCC2)Cc2ccccn2)cc1 | – | inactive: -28.5%
31 | COc1ccc(N(CC(=O)Nc2cccc(OC)c2)S(=O)(=O)c2c(C)nn(C)c2C)cc1 | – | inactive: -13.9%
32 | O=C(COC(=O)Cc1c[nH]c2ccccc12)Nc1ccccc1C(F)(F)F | inconclusive: 0.708 µM [inhibitor, full curve, poor fit] | –
33 | CCN1C(=O)[C@@H]2[C@@H](c3ccc(-c4ccc(Cl)c(Cl)c4)c(OC)c3)N3CCCC[C@@]3(C(=O)OC)[C@@H]2C1=O | inconclusive: 22.4 µM [inhibitor, single point] | –
34 | COc1ccc(-c2nc(CSc3nc4ncccc4[nH]3)c(C)o2)cc1OC | inconclusive: 35.5 µM [inhibitor, single point] | –
35 | Brc1ccc(-c2csc(N3CCCCCC3)n2)cc1 | – | inactive: -6.12%
36 | Nc1nc(N2CCN(Cc3ccccc3)CC2)n[nH]1 | – | inactive: -4%
37 | COc1ccc(NC(=O)c2ccc(-c3cccc(Cl)c3C)o2)cc1 | inconclusive: 35.5 µM [inhibitor, single point] | –
38 | CCOC(=O)C1=CC[C@@H](c2ccccc2)N(S(=O)(=O)c2ccc(C)cc2)[C@H]1c1ccc(C#N)cc1 | inconclusive: 17.8 µM [inhibitor, single point] | –
39 | Cc1ccc(NS(=O)(=O)c2cccc(C(=O)NCCc3c[nH]c4ccccc34)c2)c(C)c1 | inconclusive: 28.2 µM [inhibitor, single point] | –
40 | CCn1c(CN2CCCCC2)nc2cc(NC(=O)COc3ccc([N+](=O)[O-])cc3)ccc21 | inconclusive: 22.4 µM [inhibitor, partial curve, poor fit] | –
41 | COc1ccc(-c2[nH]c(-c3ccccc3)nc2SCC(=O)Nc2ccc3c(c2)OCO3)cc1 | inconclusive: 35.5 µM [inhibitor, single point] | –
42 | CCC(=O)NC(c1ccc(Cl)cc1Cl)c1ccc2cccnc2c1O (stereo unspecified) | inconclusive: 7.08 µM [inhibitor, full curve, poor fit] | –
43 | O=C(Nc1ccc(Cl)cc1)c1cc(S(=O)(=O)Nc2ccccn2)ccc1Cl | inconclusive: 35.5 µM [inhibitor, single point] | –
44 | Cc1ccc(/C=C/c2onc(C)c2S(=O)(=O)N2CCC(C(=O)NCc3ccc(Cl)cc3)CC2)cc1 | – | inactive: -3.38%

Row | Compound | Potency | activity, negative = inhibition
45 | O=C(Nc1cccc(S(=O)(=O)N2CCCCC2)c1)c1cncc(Br)c1 | inconclusive: 20 µM [inhibitor, single point] | –
46 | Cc1c2cnn(CC(=O)N3CCCCC3)c(=O)c2c(C)n1Cc1ccc(Cl)cc1 | inconclusive: 7.08 µM [inhibitor, partial curve] | –
47 | Cc1ccc(NC(=O)c2ccc3c(=O)n4nc(Nc5ccccc5C)sc4nc3c2)cc1C | inconclusive: 3.55 µM [inhibitor, full curve] | –
48 | O=C(/C=C/c1ccccc1)c1ccc2c3c(cccc13)CC2 | – | inactive: -8.83%
49 | COC(=O)C1=C(C)NC(=O)NC1c1cn(-c2ccccc2)nc1-c1ccc(OC)c(Cl)c1 (stereo unspecified) | inconclusive: 22.4 µM [inhibitor, single point] | –
50 | COc1ccc(-c2cc(C(=O)N(C)Cc3ccccc3F)c3ccccc3n2)cc1OC | – | inactive: -7.19%
51 | C=CCNc1ncnc2c1cnn2-c1ccc(C)cc1C | – | inactive: 2.89%
52 | COc1cc(OC)c(C2C=C(c3ccc(C)cc3)Nc3c(C(=O)Nc4ccccc4)cnn32)cc1OC (stereo unspecified) | – | inactive: -14%
53 | N#Cc1nc(-c2ccc(F)cc2)oc1NCc1cccc2c1OCO2 | inconclusive: 35.5 µM [inhibitor, single point] | –
54 | Cc1ccc(C(C)C)c(OCC(=O)Nc2c(C(=O)c3ccc(F)cc3)oc3ccccc23)c1 | – | inactive: 2.34%
55 | CCN(CCn1cccn1)C(=O)CC1C(=O)NCCN1CC1CCCCC1 (stereo unspecified) | inconclusive: 0.631 µM [inhibitor, full curve, poor fit] | –
56 | Cn1c2ccccc2c2c(C(=O)O)cn(C3CCCC3)c(=O)c21 | inconclusive: 35.5 µM [inhibitor, single point] | –
57 | NC(=O)CSc1nc2cccnc2n1-c1ccc(F)cc1 | inconclusive: 3.16 µM [inhibitor, partial curve, poor fit] | –
58 | CN(C)C(=O)CCc1ccc2c3c([nH]c2c1)[C@]1(C)[C@@H](C(=O)N2CCCCC2)C[C@H](CC(=O)NCc2ccco2)C(=O)N1CC3 | inconclusive: 17.8 µM [inhibitor, single point] | –
59 | CC1(C)CC(=O)C(C(c2cc([N+](=O)[O-])ccc2Cl)C2C(=O)CC(C)(C)CC2=O)C(=O)C1 | – | inactive: -11.8%
60 | O=C(Cc1ccsc1)N1CCN(S(=O)(=O)c2ccccc2F)CC1 | – | inactive: -1.6%
61 | Cc1cccc(NC(=O)/C=C/c2ccc([N+](=O)[O-])s2)c1 | inconclusive: 1.58 µM [inhibitor, full curve] | –
62 | NC(=O)c1ccc(OCC(=O)N2CCNC2=O)cc1 | – | inactive: -3.62%
63 | C[C@H]1CN([C@@H](C)CO)S(=O)(=O)c2ccc(C#Cc3cccnc3)cc2O[C@@H]1CN(C)C(=O)Nc1ccc2c(c1)OCO2 | – | inactive: 6.71%
64 | N=C1SCC(=O)N1c1ncc(Cc2ccc(F)cc2)s1 | inconclusive: 35.5 µM [inhibitor, single point] | –
65 | Cc1ccc(NC(=O)c2ccc(OC(F)(F)F)cc2)cc1S(=O)(=O)N(C)C | inconclusive: 8.91 µM [inhibitor, partial curve, poor fit] | –
66 | O=C(Nc1ccc(F)cc1)c1cccc(N2CCCS2(=O)=O)c1 | inconclusive: 35.5 µM [inhibitor, partial curve, poor fit] | –
